54 molecules from PubChem BioAssay AID1347073 (National Center for Advancing Translational Sciences (NCATS), 2019) can be followed below.

Structures are written as SMILES. Screen size: about 45,000 compounds; about 200 (0.44%) were called active. Inconclusive results (about 7%) are left out. Calls come from the whole dose curve; as a rule, active = well fitted activation curve with a large enough effect; inconclusive = small, poorly fitted or top-dose-only effect; inactive = no such curve, though single readings can be large or run the other way. The list shows a part of the results.
Potency is the fitted concentration of half-maximal effect.

The assay in a line: qHTS of TDP-43 Inhibitors: NCGC Sytravon Library Screen. For growth rescue (activation): 0% is about no effect. Note: nearly all actives have a fitted effect of over 55% in size. To be noted: yeast TDP-43 toxicity rescue, BacTiter-Glo growth, 24 h; series mostly up to 46.1 µM; growth rescue (activation): at the top concentration. The procedure, abridged:
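TDP-43-expressing yeast, pregrown in raffinose, seeded at OD600 0.02 in galactose medium with compound for 24 hr at 30 deg C. Growth read by BacTiter-Glo luminescence, so rescue of toxicity appears as activation.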
(In general: qHTS replaces the single test concentration by a dilution series.)
Consider `Cc1ccc(F)cc1NC(=O)CCNC(=O)c1ccc([N+](=O)[O-])cc1`, for which the “growth rescue (activation)” value was inactive: 5.77%.

As for `COc1cccc(CNCC(O)COc2ccc(C(=O)c3ccccc3)cc2)c1` (centres undefined), the “growth rescue (activation)” value was inactive: -9.2%.

Consider `O=C(NC1CCCCCC1)c1cccnc1Sc1ccc(Cl)cc1`, for which the “growth rescue (activation)” value is inactive: 4.89%.

On to `O=C(CSc1nc2c(cnn2-c2ccccc2)c(=O)[nH]1)NCC1CCCO1` (centres undefined), for which the “growth rescue (activation)” value was inactive: 0.734%.

As for `Cc1ccc(CNS(=O)(=O)c2ccc3c(c2)n(C)c(=O)c(=O)n3C)cc1`, the “growth rescue (activation)” value was inactive: 13.2%.

Regarding `CCN(CC)C1CCN(c2nc3nonc3nc2NCCOC)C1` (centres undefined), the “growth rescue (activation)” value was inactive: 1.92%.

Regarding `CC1CCCCC1NC(=O)Cn1c(=O)cnc2ccccc21` (centres undefined), the “growth rescue (activation)” value is inactive: 5.98%.

Regarding `COc1cc(/C=N/N=C(\N)c2nonc2N)cc(OC)c1O`, the “growth rescue (activation)” value was inactive: 5.95%.

For `Cc1ccc(C)c(Cn2nnc3c(=O)[nH]c(C4CCCN(C(=O)c5ccco5)C4)nc32)c1` (centres undefined), the “growth rescue (activation)” value is inactive: 6.3%.

`CC(=O)c1ccc(NC(=O)CCc2c(C)nc3c(c(C)nn3-c3ccc(C)cc3)c2C)cc1`: the “growth rescue (activation)” value was inactive: 6.73%.

With `CN(C)S(=O)(=O)c1cccc(NC(=O)C2CCN(S(=O)(=O)c3cccs3)CC2)c1`, the “growth rescue (activation)” value was inactive: -1.89%.

As to `O=C(Cn1nc(C(=O)O)c2ccccc2c1=O)Nc1ccc(F)cc1F`, the “growth rescue (activation)” value was inactive: 16%.

Turning to `CSc1cccc(NC(=S)N2CCCN(Cc3ccc(F)cc3)C2)c1`, the “growth rescue (activation)” value was inactive: 15.2%.

As to `CCCNC(=O)C1(C)CCCN(C(=O)c2cc(F)cc(F)c2)C1` (centres undefined), the “growth rescue (activation)” value is inactive: 4.34%.

Regarding `COc1ccc(C2CC3(CC(C)(C)NC(=S)N3)Oc3cc(O)cc(C)c32)cc1OC` (centres undefined), the “growth rescue (activation)” value was inactive: -4.95%.

Consider `Cn1c(SCc2ccccc2)nnc1-c1ccco1`, for which the “growth rescue (activation)” value was inactive: 5.21%.

As to `O=C(c1cc([N+](=O)[O-])ccc1N1CCCCC1)N1CCc2ccccc21`, the “growth rescue (activation)” value was inactive: 3.02%.

Consider `O=S(=O)(NCc1cccc(C(F)(F)F)c1)NCc1ccccc1F`, for which the “growth rescue (activation)” value was inactive: 10.5%.

On to `CCN(CC)CCSc1nnc2c3cc(F)ccc3n(Cc3ccccc3)c2n1`, for which the “growth rescue (activation)” value is inactive: -12.2%.

Take `CC(=O)c1cc(C#N)c(NCCCN(C)C)nc1C`: the “growth rescue (activation)” value was inactive: 1.32%.

As for `Cc1ccc(NC(=O)COC(=O)Cn2cnc3c2c(=O)n(C)c(=O)n3C)cc1F`, the “growth rescue (activation)” value was inactive: 17.1%.

In the case of `C/C(CC(=O)Nc1c(C)cc(C)cc1C)=N\NC(=O)Cc1ccccc1`, the “growth rescue (activation)” value was inactive: -13.2%.

For the molecule `Cc1cc(Br)ccc1NC(=O)CN(C)Cc1cccs1`, the “growth rescue (activation)” value was inactive: -4.58%.

On to `COc1cccc(NC(=O)CN2C(=O)C(=O)N(C3CCCC3)C2=O)c1`, for which the “growth rescue (activation)” value was inactive: -1.46%.

Regarding `CCOc1ccc(N=C(C)C2=C(O)c3ccccc3C2=O)cc1`, the “growth rescue (activation)” value was inactive: -14.1%.

For `CCS(=O)(=O)N1Cc2ccccc2CC1C(=O)Nc1ccc(OC)c(OC)c1` (centres undefined), the “growth rescue (activation)” value was inactive: -3.13%.

Turning to `Cc1cc(C)n(C(=O)/C=C/c2cccs2)n1`, the “growth rescue (activation)” value is inactive: 14.9%.

On to `CCN(CC)S(=O)(=O)c1ccc(NC(=O)CSc2ncnc3ccccc23)cc1`, for which the Potency is active: 22.4 µM.

For `Cc1ccc2nc(-c3ccc(O)cc3)oc2c1`, the “growth rescue (activation)” value was inactive: 10.2%.

Regarding `CCOC(=O)C1(CCOC)CCN(Cc2nc(C(C)C)cs2)CC1`, the “growth rescue (activation)” value is inactive: -3.33%.

`CSc1nc2ccc(NC(=O)c3ccco3)cc2s1`: the “growth rescue (activation)” value was inactive: 15.5%.

With `Cc1ccc(OCCC(=O)NNC(=O)c2ccc(Br)cc2)cc1`, the “growth rescue (activation)” value was inactive: 19.7%.

As for `COc1cc(C)ccc1OCC(=O)OCC(=O)c1[nH]c(C)c(C(C)=O)c1C`, the “growth rescue (activation)” value was inactive: 2.79%.

Take `C=CC[n+]1cccc(-c2cc3ccc(C)cc3[nH]2)c1`: the “growth rescue (activation)” value is inactive: -0.804%.

Turning to `CCOC(=O)c1c(C)c[nH]c1C`, the “growth rescue (activation)” value is inactive: -3.88%.

For `Cc1cc(C)c(C(=O)COC(=O)c2ccc(NC(=O)CC#N)cc2)cc1C`, the “growth rescue (activation)” value is inactive: 36.1%.

Take `COc1ccccc1CCC(=O)OCC(=O)NCc1ccc(OC)c(OC)c1`: the “growth rescue (activation)” value is inactive: 6.01%.

On to `O=C(N/N=C/c1ccccc1[N+](=O)[O-])c1cccs1`, for which the “growth rescue (activation)” value is inactive: 12.9%.

As to `CC(C)(C)NC(=O)NC(=O)COC(=O)CCC1CCCC1`, the “growth rescue (activation)” value was inactive: 27.9%.

On to `O=C(NCCc1ccccc1F)c1cccc2cccnc12`, for which the “growth rescue (activation)” value is inactive: 7.19%.

In the case of `CCc1cc2c(COC(=O)c3cccc(NS(C)(=O)=O)c3)cc(=O)oc2cc1O`, the “growth rescue (activation)” value is inactive: 10.9%.

For `O=C(COC(=O)CN1C(=O)NC2(CCCC2)C1=O)NCc1ccc(Cl)cc1Cl`, the “growth rescue (activation)” value is inactive: 4.37%.

With `O=S(=O)(NCc1csc(-c2ccccc2)n1)c1cccc(F)c1`, the “growth rescue (activation)” value was inactive: 31.4%.

Consider `CCCCN(C=O)c1c(CC)nc2c(OCCOc3ccc(F)cc3)cccn12`, for which the “growth rescue (activation)” value is inactive: 11.6%.

`CCc1ccc(N2CC(C(=O)Nc3ccc(S(=O)(=O)Nc4ncccn4)cc3)CC2=O)cc1` (centres undefined): the “growth rescue (activation)” value was inactive: 5.09%.

In the case of `CCC(=O)NN1CCc2cc3ccc(C)cc3nc21`, the “growth rescue (activation)” value was inactive: 12.6%.

Take `COc1ccc(/C=C2\Sc3ccc(C(=O)NCc4cccnc4)cc3N(C)C2=O)cc1OC`: the “growth rescue (activation)” value was inactive: 12.5%.

For the molecule `COc1cccc(C(=O)COC(=O)c2n[nH]c(=O)c3ccccc23)c1`, the “growth rescue (activation)” value was inactive: 8.11%.

Regarding `Cc1ccnc(NC(=O)COC(=O)c2ccc(F)cc2F)n1`, the “growth rescue (activation)” value was inactive: -5.78%.

Turning to `O=C(Nc1ccccc1)O/N=C/c1ccncc1`, the “growth rescue (activation)” value was inactive: 0.711%.

On to `COc1ccc(C(=O)Nc2ccccc2C(=O)N2CCOCC2)cc1`, for which the “growth rescue (activation)” value is inactive: -0.777%.

Consider `COc1cc(NS(=O)(=O)c2ccc(NC(=S)NC(=O)/C=C/c3ccco3)cc2)ncn1`, for which the “growth rescue (activation)” value is inactive: 0.203%.

Take `CC(C)NC(=O)CN(Cc1ccc2c(c1)OCO2)C(=O)CCC(=O)Nc1ccccn1`: the “growth rescue (activation)” value was inactive: -14.4%.

For `CCn1c(=O)c2cc(C(=O)NCCOC)sc2c2ccccc21`, the “growth rescue (activation)” value is inactive: -0.983%.
